Experimental data: the supplement of paper PMC12217912
This is one part of the list. The full chains were built here from the parent and the listed change. Values near 0.05 are background.

B1: TEV protease; numbered along this chain (parent)
chain: MGESLFKGPRDYNPISSSICHLTNESDGHTTSLYGIGFGPFIITNKHLFRRNNGTLVVQSLHGVFKVKDTTTLQQHLVDGRDMIIIRMPKDFPPFPQKLKFREPQREERICLVTTNFQTKSMSSMVSDTSCTFPSGDGIFWKHWIQTKDGQCGSPLVSTRDGFIVGIHSASNFTNTNNYFTSVPKNFMELLTNQEAQQWVSGWRLNADSVLWGGHKVFMVKPEEPFQPVKEATQL

Variants of: B1
Assay: raw area under fraction-flipped curve 0-4 h after induction (AUC4h, not background-subtracted), DNA-recorder readout of cleavage of the substrate (dimensionless); higher = more cleavage of the substrate by the protease variant
Settings: temperature: 34 °C; time window: 0-4 h after rhamnose induction
Procedure: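 In vivo DNA recorder in E. coli TOP10(DE3) ΔrhaA at 34 °C. Each TEVp single-site mutant (parent TEVp 0) is paired with a single-site variant of the 7-mer TEVs (canonical ENLYFQ|S). The substrate sits between flexible linkers in a Bxb1-sfGFP-TEVs-SsrA fusion, so cleavage stabilises Bxb1 and speeds flipping of a recombination array, read by NGS. The value is the raw area under the fraction-flipped curve over 0-4 h after rhamnose induction (AUC4h), with ≥20 reads per time point. It is not background-subtracted; inactive controls average about 0.047.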
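Further: Bxb1 expression induced with 0.2% (w/v) L-rhamnose at OD600 near 0.5, cultures sampled hourly, flipped fraction per protease–substrate barcode pair counted by paired-end Illumina sequencing.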

| Variant | area with substrate EALYFQS | area with substrate EDLYFQS | area with substrate EELYFQS | area with substrate EFLYFQS | area with substrate EGLYFQS | area with substrate EILYFQS | area with substrate ELLYFQS | area with substrate EMLYFQS | area with substrate EQLYFQS | area with substrate ESLYFQS |
| --- | --- | --- | --- | --- | --- | --- | --- | --- | --- | --- |
| MGESLFKGPRDYNPISSSICHLTNESDGHTTSLYGIGFGPFIITNKHLFRRNNGTLVVQSLHGVFKVKDTTTLQQHLVDGRDMIIIRMPKDFPPFPQKLKFREPQREERICLVTTNFQTKSMSSMVSDTSCTFPSGDGIFWKHWIQTKDGQCGSPLVSTRGGFIVGIHSASNFTNTNNYFTSVPKNFMELLTNQEAQQWVSGWRLNADSVLWGGHKVFMVKPEEPFQPVKEATQL [D161G] | 0.0919 | 0.0927 | 0.103 | 0.105 | 0.0778 | 0.062 | 0.069 | 0.104 | 0.0974 | 0.0895 |
| MGESLFKGPRDYNPISSSICHLTNESDGHTTSLYGICFGPFIITNKHLFRRNNGTLVVQSLHGVFKVKDTTTLQQHLVDGRDMIIIRMPKDFPPFPQKLKFREPQREERICLVTTNFQTKSMSSMVSDTSCTFPSGDGIFWKHWIQTKDGQCGSPLVSTRDGFIVGIHSASNFTNTNNYFTSVPKNFMELLTNQEAQQWVSGWRLNADSVLWGGHKVFMVKPEEPFQPVKEATQL [G37C] | 0.121 | – | 0.124 | 0.0807 | – | 0.0917 | – | – | 0.114 | 0.111 |
| MGESLFKGPRDYNPISSSICHLTNESDGHTTSLYGIGFGPFIITNKHLFRRNNGTLVVQSLHGVFKVKDTTTLQQHLVDGRDMIIIRMPKDFPPFPQKLKFREPQREERICLVTTNFQTKSMSSMVSDTSCTFPSGDGIFWKHWIQTKDGQCGSPLVSTRDGFIVGIHSASNFTNTNNYFTSVPKNFMELLTNQEAQQWVSGWRLNADSVLWGGHKEFMVKPEEPFQPVKEATQL [V217E] | 0.0553 | – | – | – | – | – | – | – | – | 0.0656 |
| MGESLFKGPRDYNPISSSICHLTNESDGHTTSLYGIGFGPFIITNKHLFRRNNGTLVVQSLHGVFKVKDTTTLQQHLVDGRDMIIIRMPKDFPPFPQKLKFREPQREERICLVTTNFQTKSMSSMVSDTSCTFPSGDGIFWKHWIQTKDGQCGSPLVSTRDGFIVGIHSASNFTNTNNYFTSVPKNFMELLTNQEAQQWVSGWRLNADSVLWGGHKVFMVKPEEPFQPVKEAPQL [T233P] | 0.113 | – | 0.112 | – | – | – | – | – | – | – |
| MGESLFKGPRDYNPISSSICHLTNESDGHTTSLYGIGFGPFIITNKHLFRRNNGTLVVQSLHGVFKVKDTTTLQQHLVDGRDMIIIRMPKDFPPFPQKLKFREPQREERICLVTTNFQTKSMSYMVSDTSCTFPSGDGIFWKHWIQTKDGQCGSPLVSTRDGFIVGIHSASNFTNTNNYFTSVPKNFMELLTNQEAQQWVSGWRLNADSVLWGGHKVFMVKPEEPFQPVKEATQL [S124Y] | 0.138 | 0.124 | – | – | 0.0912 | – | – | – | – | 0.112 |
| MGESLFKGPRDYNPISSSICHLTNESDGHTTSLYGIGFGPFIITNKHLFRRNNGTLVVQSLHGVFKVKDTTTLQQHLVDGRDMIIIRMPKDFPPFPQKLKFREPQREERICLVTTNFQTKSMSSMVSDTSCTFPSGDGIFWKHWIQTKIGQCGSPLVSTRDGFIVGIHSASNFTNTNNYFTSVPKNFMELLTNQEAQQWVSGWRLNADSVLWGGHKVFMVKPEEPFQPVKEATQL [D149I] | 0.0706 | – | – | – | 0.0901 | – | – | – | 0.0948 | 0.0763 |

Same assay, conditions: temperature: 34 °C; time window: 0-4 h after rhamnose induction

| Variant | area with substrate EVLYFQS | area with substrate EYLYFQS | area with substrate EKLYFQS | area with substrate ERLYFQS | area with substrate ETLYFQS | area with substrate EWLYFQS | area with substrate EPLYFQS |
| --- | --- | --- | --- | --- | --- | --- | --- |
| MGESLFKGPRDYNPISSSICHLTNESDGHTTSLYGIGFGPFIITNKHLFRRNNGTLVVQSLHGVFKVKDTTTLQQHLVDGRDMIIIRMPKDFPPFPQKLKFREPQREERICLVTTNFQTKSMSSMVSDTSCTFPSGDGIFWKHWIQTKDGQCGSPLVSTRGGFIVGIHSASNFTNTNNYFTSVPKNFMELLTNQEAQQWVSGWRLNADSVLWGGHKVFMVKPEEPFQPVKEATQL [D161G] | 0.0845 | 0.0747 | – | – | – | – | – |
| MGESLFKGPRDYNPISSSICHLTNESDGHTTSLYGICFGPFIITNKHLFRRNNGTLVVQSLHGVFKVKDTTTLQQHLVDGRDMIIIRMPKDFPPFPQKLKFREPQREERICLVTTNFQTKSMSSMVSDTSCTFPSGDGIFWKHWIQTKDGQCGSPLVSTRDGFIVGIHSASNFTNTNNYFTSVPKNFMELLTNQEAQQWVSGWRLNADSVLWGGHKVFMVKPEEPFQPVKEATQL [G37C] | – | – | 0.138 | – | – | – | – |
| MGESLFKGPRDYNPISSSICHLTNESDGHTTSLYGIGFGPFIITNKHLFRRNNGTLVVQSLHGVFKVKDTTTLQQHLVDGRDMIIIRMPKDFPPFPQKLKFREPQREERICLVTTNFQTKSMSSMVSDTSCTFPSGDGIFWKHWIQTKDGQCGSPLVSTRDGFIVGIHSASNFTNTNNYFTSVPKNFMELLTNQEAQQWVSGWRLNADSVLWGGHKEFMVKPEEPFQPVKEATQL [V217E] | – | – | 0.0649 | 0.0631 | 0.0638 | 0.0768 | – |
| MGESLFKGPRDYNPISSSICHLTNESDGHTTSLYGIGFGPFIITNKHLFRRNNGTLVVQSLHGVFKVKDTTTLQQHLVDGRDMIIIRMPKDFPPFPQKLKFREPQREERICLVTTNFQTKSMSSMVSDTSCTFPSGDGIFWKHWIQTKDGQCGSPLVSTRDGFIVGIHSASNFTNTNNYFTSVPKNFMELLTNQEAQQWVSGWRLNADSVLWGGHKVFMVKPEEPFQPVKEAPQL [T233P] | 0.105 | – | 0.126 | 0.118 | – | – | – |
| MGESLFKGPRDYNPISSSICHLTNESDGHTTSLYGIGFGPFIITNKHLFRRNNGTLVVQSLHGVFKVKDTTTLQQHLVDGRDMIIIRMPKDFPPFPQKLKFREPQREERICLVTTNFQTKSMSYMVSDTSCTFPSGDGIFWKHWIQTKDGQCGSPLVSTRDGFIVGIHSASNFTNTNNYFTSVPKNFMELLTNQEAQQWVSGWRLNADSVLWGGHKVFMVKPEEPFQPVKEATQL [S124Y] | 0.0962 | – | – | – | – | – | 0.158 |
| MGESLFKGPRDYNPISSSICHLTNESDGHTTSLYGIGFGPFIITNKHLFRRNNGTLVVQSLHGVFKVKDTTTLQQHLVDGRDMIIIRMPKDFPPFPQKLKFREPQREERICLVTTNFQTKSMSSMVSDTSCTFPSGDGIFWKHWIQTKIGQCGSPLVSTRDGFIVGIHSASNFTNTNNYFTSVPKNFMELLTNQEAQQWVSGWRLNADSVLWGGHKVFMVKPEEPFQPVKEATQL [D149I] | – | 0.0592 | – | – | 0.0868 | – | – |
